Measured values published in PubChem BioAssay AID485364 (National Center for Advancing Translational Sciences (NCATS), 2010).
Screen size: about 360,000 compounds; about 11,000 (3.1%) were called active. Inconclusive means that the source gave no clear call. Such entries were picked first, then a sample of the others. The call rests on the fitted dose curve; in most records, active means well fitted inhibition curve with a large enough effect; inconclusive means small, poorly fitted or top-dose-only effect; inactive means no such curve, though single readings can be large or run the other way. No potency is given beside an inconclusive call; the fits are too rough.
Further: nearly all actives have a fitted effect of over 60% in size.
On the % scale 0 is the no-effect control and ±100 the full control effect; potency means the concentration at half of the fitted maximal effect; tags describe the fitted curve by direction and shape.

These compounds were tested against Schistosoma mansoni thioredoxin glutathione reductase (TGR) (UniProt Q962Y6) (assay: qHTS Assay for the Inhibitors of Schistosoma Mansoni Peroxiredoxins). Conditions: purified TGR, DTNB reduction, TNB absorbance 405 nm; activity change, negative = inhibition: at 114 µM (top of the series) unless noted.
Method in brief: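 First, TGR (20 nM dispensed) and NADPH were mixed with compound. Second, a 15 min room-temperature incubation followed. Third, further NADPH and then DTNB were added to start the reaction. Finally, TNB absorbance was monitored kinetically.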
In the case of `CCCc1nc2ccccc2n1CC(O)COc1ccc(C(=O)OC)cc1` (configuration not stated), the “activity change, negative = inhibition” value was inactive: 2.59%.
In the case of `Cc1ccc(-c2nnn(CC(=O)N(Cc3cccs3)C(C(=O)NC(C)(C)C)c3ccco3)n2)o1` (configuration not stated), the Potency was inconclusive [inhibitor, partial curve].
For `CC(C)Cc1nnc(NC(=O)C23CC4CC(CC(C4)C2)C3)s1`, the “activity change, negative = inhibition” value was inactive: -9.13%.
With `Cc1nnc(NC(=O)CSc2nnc(Cc3cccn3C)n2-c2cccc(C(F)(F)F)c2)s1` the Potency was inconclusive [inhibitor, partial curve].
`CCOc1ccc(C(C)=O)cc1COc1ccc(-n2cnnn2)cc1` was tested, and the Potency was inconclusive [inhibitor, full curve].
For `Cn1c(CN2CCCC2)nc2cc(NS(=O)(=O)c3ccccc3)ccc21`, the “activity change, negative = inhibition” value was inactive: 0%.
In the case of `COc1ccc(C(C)=O)cc1COC(=O)CNC(=O)c1ccccc1F`, the Potency was active: 8.91 µM.
With `O=C1OCC(CO)(CO)N=C1NNc1ccc(Cl)c(Cl)c1` the “activity change, negative = inhibition” value was inactive: -4.06%.
In the case of `COC(=O)Nc1ccc(SCC(=O)c2cccc([N+](=O)[O-])c2)cc1`, the Potency was inconclusive [inhibitor, single point].
`O=C(c1ccc(OC2CCN(Cc3ccccn3)CC2)cc1)N1CCC[C@H]1CO` was tested, and the Potency was inconclusive [inhibitor, single point].
`Cc1c(Cl)cccc1NC(=O)Cn1c(CCC(=O)O)ccc1-c1ccccc1` was tested, and the Potency was inconclusive [inhibitor, partial curve].
In the case of `c1ccc(Cn2c(SCc3nc4ccccc4s3)nnc2-c2ccco2)cc1`, the Potency was active: 12.6 µM.
For `O=C(CCCl)N1CCCC2(CCCCC2)C1`, the Potency was inconclusive [inhibitor, partial curve].
With `COc1cc([N+](=O)[O-])ccc1NC(=O)Nc1ccc(C(=O)N2CCCC2)cc1` the Potency was inconclusive [inhibitor, partial curve].
In the case of `Oc1ccc(/C(Cc2ccccn2)=N\Nc2ccccc2)c(O)c1`, the Potency was inconclusive [inhibitor, partial curve].
`COC(=O)c1cc2occc2n1CC(=O)Nc1ccc(OC)c(OC)c1OC` was tested, and the Potency was inconclusive [inhibitor, partial curve].
`Cc1csc(NC(=S)Nc2cccc(Cl)c2)n1` was tested, and the Potency was inconclusive [inhibitor, full curve, poor fit].
For `CCOC(=O)CSCC(=O)N1N=C(c2cccs2)CC1c1ccc(F)cc1` (configuration not stated), the Potency was inconclusive [inhibitor, partial curve].
In the case of `CCCn1c(SCC(=O)c2cc(OC)ccc2OC)nnc1-c1ccco1`, the Potency was inconclusive [inhibitor, partial curve].
For `CCOC(=O)c1c(NC(=S)Nc2cccc(C)c2)sc2c1CC(C)(C)SC2`, the Potency was inconclusive [inhibitor, partial curve, poor fit].
In the case of `CC(C)(C)c1ccc(C(=O)NC(=S)NCc2cccnc2)cc1`, the Potency was inconclusive [inhibitor, partial curve].
For `COc1ccc(Br)cc1C1Nc2cccc3cccc(c23)N1`, the Potency was inconclusive [inhibitor, partial curve].
`COc1ccc2ccccc2c1CNCc1ccccn1` was tested, and the Potency was inconclusive [inhibitor, partial curve].
With `O=C(COc1ccc2ccc(=O)oc2c1)Nc1ccc2c(c1)OCCO2` the Potency was inconclusive [inhibitor, single point].
`CSc1nc(-c2ccco2)nn1C(=O)c1ccc(C)cc1` was tested, and the Potency was inconclusive [inhibitor, partial curve].
In the case of `O=C(O)c1ccc(N2C(=O)CC(N3CCN(c4ccc(Cl)cc4)CC3)C2=O)cc1` (configuration not stated), the Potency was inconclusive [inhibitor, partial curve].
`Cc1cccc(-c2noc(CNC(=O)c3ccoc3C)n2)c1` was tested, and the Potency was inconclusive [inhibitor, partial curve].
With `CC1(C)N=C(c2ccccc2)C(=O)N1` the Potency was inconclusive [inhibitor, full curve, poor fit].
For `CC(C)C1C(=O)Nc2ccc(S(=O)(=O)NCCc3ccc(Cl)cc3)cc21` (configuration not stated), the “activity change, negative = inhibition” value was inactive: 12.7%.
In the case of `CN1C(=O)c2cccc3c(S(=O)(=O)NCc4ccco4)ccc1c23`, the Potency was inconclusive [inhibitor, full curve].
`Cc1ccc(Cl)cc1N1CCN(C(=O)c2c(C)oc3ncnc(N4CCCCC4)c23)CC1` was tested, and the “activity change, negative = inhibition” value was inactive: 11.2%.
In the case of `CCOc1ccc(S(=O)(=O)NCc2ccco2)c2ccccc12`, the Potency was inconclusive [inhibitor, partial curve].
`CCOC(=O)c1ccc(N2C(=O)CC(N3CC(C)OC(C)C3)C2=O)cc1` (configuration not stated) was tested, and the Potency was inconclusive [inhibitor, single point].
`Cc1cc(C(=O)CSc2nnc(-c3ccccc3)n2Cc2ccc3c(c2)OCO3)c(C)n1C` was tested, and the Potency was inconclusive [inhibitor, single point].
In the case of `O=C(Nc1sccc1C(=O)NCc1ccco1)c1cccnc1`, the Potency was inconclusive [inhibitor, partial curve].
In the case of `CCCCn1c(N)c(N(CCC(C)C)C(=O)c2ccc([N+](=O)[O-])o2)c(=O)[nH]c1=O`, the Potency was inconclusive [inhibitor, partial curve].
`CCCCn1c(=O)[nH]c(=O)c2c1nc(-c1ccccc1OC(F)F)n2C` was tested, and the Potency was inconclusive [inhibitor, single point].
For `COc1ccc(C(NC(=O)c2cccc(F)c2)c2ccccc2)cc1` (configuration not stated), the Potency was inconclusive [inhibitor, partial curve].
With `CC(=O)c1ccc(S(=O)(=O)Nc2c(C)nn(C)c2C)cc1` the Potency was inconclusive [inhibitor, partial curve].
For `CC(C)CN(C(=O)COC(=O)c1ccc([N+](=O)[O-])s1)c1c(N)n(Cc2ccccc2)c(=O)[nH]c1=O`, the Potency was inconclusive [inhibitor, partial curve].
For `O=S(=O)(c1ccc(F)cc1)c1nc(-c2ccccc2)oc1N1CCOCC1`, the Potency was inconclusive [inhibitor, full curve].
For `CCn1c(SCC(=O)Nc2cc(C)on2)nnc1-c1ccco1`, the Potency was inconclusive [inhibitor, partial curve].
